# Reference: PubChem BioAssay AID488969 (Vanderbilt High Throughput Screening Facility, 2010)
# In all, about 110,000 compounds were measured (“z-score”: median about -0.1, highest 2% from about 2 on). The list shows a part of the results. Activity calls are given as the source filed them.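 The calls were made as follows: active = z-score in the third read window above 3 or below -3; inactive = the rest.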
# Molecular target: Metabotropic glutamate receptor 8 (Rattus norvegicus) (UniProt P70579)
# Experiment: mGluR8 Gi/Go-coupled signaling modulation – cell-based, rat, thallium flux, HTS, primary screen (AID 488969)
# Settings: HEK293 rat mGluR8, GIRK (G protein-gated inwardly rectifying potassium channel) thallium flux, FluoZin2; at 10 µM; stronger effect = higher value; submaximal glutamate (EC20) added with thallium
# UniProt P70579, sequence (P70579 whole entry, looked up): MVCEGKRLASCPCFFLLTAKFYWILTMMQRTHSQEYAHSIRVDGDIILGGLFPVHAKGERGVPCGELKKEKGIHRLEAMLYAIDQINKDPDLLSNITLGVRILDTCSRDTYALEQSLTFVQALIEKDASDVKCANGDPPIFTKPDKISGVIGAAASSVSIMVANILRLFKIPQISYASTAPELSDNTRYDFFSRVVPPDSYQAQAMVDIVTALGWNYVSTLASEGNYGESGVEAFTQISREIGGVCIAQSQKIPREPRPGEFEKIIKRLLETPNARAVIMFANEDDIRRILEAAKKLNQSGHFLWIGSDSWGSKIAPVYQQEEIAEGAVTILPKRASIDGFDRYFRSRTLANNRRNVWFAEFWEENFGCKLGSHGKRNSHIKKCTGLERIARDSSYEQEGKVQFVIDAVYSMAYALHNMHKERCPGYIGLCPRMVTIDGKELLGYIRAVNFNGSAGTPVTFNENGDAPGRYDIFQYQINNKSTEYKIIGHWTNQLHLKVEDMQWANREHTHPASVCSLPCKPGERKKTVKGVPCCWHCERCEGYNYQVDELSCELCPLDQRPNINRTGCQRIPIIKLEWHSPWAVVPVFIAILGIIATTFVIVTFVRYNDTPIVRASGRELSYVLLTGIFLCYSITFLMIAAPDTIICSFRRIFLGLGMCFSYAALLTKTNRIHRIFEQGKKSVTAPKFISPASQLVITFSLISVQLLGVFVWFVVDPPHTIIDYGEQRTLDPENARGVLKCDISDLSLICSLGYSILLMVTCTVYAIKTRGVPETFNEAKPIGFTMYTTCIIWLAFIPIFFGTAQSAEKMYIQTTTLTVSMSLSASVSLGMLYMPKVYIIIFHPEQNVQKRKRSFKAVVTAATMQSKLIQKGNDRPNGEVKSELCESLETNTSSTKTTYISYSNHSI
row,Structure (SMILES),z-score
1,O=C(NC12CC3CC(CC(C3)C1)C2)c1cncc(O)c1,-0.626
2,CN(C)S(=O)(=O)c1cccc(NC(=O)COC(=O)CCc2nc3ccccc3s2)c1,-0.757
3,COc1cc(C)c(N)cc1C(C)C,2.12
4,COc1ccc(-c2csc(NC3=NCCCCC3)n2)cc1,-0.262
5,O=C(c1ccc(OCC2CCCO2)cc1)N1CCN(c2ccccc2)CC1 (stereo unspecified),-0.525
6,Cc1c(NC(=O)C2CC=CCC2C(=O)O)c(=O)n(-c2ccccc2)n1C (stereo unspecified),2.16
7,O=C(NC(N1CCCC1)C(Cl)(Cl)Cl)c1ccccc1 (stereo unspecified),-0.174
8,CCN1CCN(C(=S)NCCc2ccccc2)CC1,0.392
9,CCc1ccc(OCC(=O)O/N=C(\N)Cc2ccc([N+](=O)[O-])cc2)cc1,0.0339
10,CC(C)C(=O)Nc1ccc(NC(=O)c2cccc(F)c2)cn1,0.794
11,COc1ccc(C(=O)Nc2cccc(-c3cc4ccccc4oc3=O)c2)cc1[N+](=O)[O-],-0.159
12,Cc1cc(NC(=O)CN2CCCC(C)C2)n(-c2nc3ccccc3s2)n1 (stereo unspecified),-0.272
13,COc1ccc(CC(=O)Nc2ccc(S(=O)(=O)Nc3nccc(C)n3)cc2)cc1,0.14
14,C=C(C)COc1ccc(-c2[nH]ncc2Oc2cccc(OC)c2)c(O)c1,0.82
15,CCC1CCCCN1C(=O)c1c[nH]c2ccc(S(=O)(=O)N(C)c3ccc(Cl)cc3)cc2c1=O (stereo unspecified),-0.479
16,O=Cc1cn(-c2ccccc2)nc1-c1ccc2c(c1)OCCO2,-1.11
17,CCC(=O)Nc1sc2c(c1C#N)CC(C)(C)NC2(C)C,0.0582
18,COc1ccc(/C=C/C(=O)Nc2ccc(-n3nncc3-c3ccc(OC)c(OC)c3)cc2)cc1OC,-0.638
19,CCNC(=O)CCn1nc(-c2ccc(Cl)cc2)c2ccccc2c1=O,-0.723
20,COC(=O)c1ccc(NC(=O)C2CC2)o1,-0.0163
21,CCN1CCN(c2nc3ccccc3nc2C(C#N)S(=O)(=O)c2ccc(C)cc2)CC1 (stereo unspecified),-0.171
22,COc1ccc(S(=O)(=O)Nc2ccc(S(=O)(=O)N3CCCC3)cc2)cc1,1.31
23,C/C=C/c1ccc(OCCCCOc2ccccc2F)c(OC)c1,-0.398
24,Cc1ccc(C(=O)NNc2nc3ccccc3nc2C(F)(F)F)cc1,active: 5.19

row,Structure (SMILES),z-score
1,O=C(/C=C\NCC(=O)c1ccccc1)c1ccc2ccccc2c1,-0.0887
2,Cc1cc(C(c2ccc(C)o2)c2ccc(C)o2)c(O)c([N+](=O)[O-])c1,-1.26
3,CC(C)OCCCNC(=O)Cn1ncc2c(=O)oc3ccccc3c21,0.481
4,O=C(OCc1c(Cl)cccc1Cl)c1cccnc1,-0.283
5,Cc1cc(NC(=O)CSc2ncn(-c3ccccc3)n2)no1,-0.12
6,S=C(NCCc1ccccc1)Nc1ccccn1,0.129
7,Cc1csc(NC(=O)c2cccn2C)n1,0.29
8,CC(C)(CO)Nc1ccc([N+](=O)[O-])cc1[N+](=O)[O-],-0.255
9,CCc1c(-c2n[nH]c(=S)n2Cc2ccccc2)csc1C,2.88
10,CCNC(=O)CSc1ncnc2sccc12,0.162
11,C=C(C)COc1ccc(-c2[nH]ncc2-c2ccccc2)c(O)c1,-0.178
12,CC(=O)NCCC(=O)Nc1ccc(C)c(F)c1,0.255
13,O=C(NCc1ccco1)c1cc(-c2cccc(Cl)c2)on1,0.0775
14,CC(=O)Nc1ccc(S(=O)(=O)NCCC(=O)NCCc2ccc(F)cc2)cc1,-0.326
15,Cc1cc(C)cc(NC(=O)CSc2ncc(S(=O)(=O)c3ccccc3)c(=O)[nH]2)c1,-0.122
16,CCOC(=O)c1[nH]c2ccc(F)cc2c1NC(=O)CCN1CCSCC1,-0.0212
17,Cc1cc(C)cc(OCC(=O)Nc2ccc(N3CCN(S(C)(=O)=O)CC3)cc2)c1,-0.576
18,Cc1ccc(C=C2C(=O)c3ccccc3C2=O)o1,-0.113
19,O=S(=O)(c1ccc(F)cc1)c1nc(-c2ccco2)oc1Nc1ccc(F)cc1,0.152
20,CC(=O)c1cn(CCCCCCCCCCn2cc(C(C)=O)c(=O)[nH]c2=O)c(=O)[nH]c1=O,-0.0303
21,O=C(/C=C/c1cccc([N+](=O)[O-])c1)NCc1cccnc1,-0.187
22,[O-]C1=N/[N+](=C/c2ccccc2Cl)CC1,0.626
23,O=c1[nH]c(-c2cccnc2)nc2ccccc12,-0.073
24,COc1cccc(N2CCN(C(=O)NC3CCCCC3)CC2)c1,-0.123

row,Structure (SMILES),z-score
1,O=C(CN1CCc2ccccc2C1)c1cccs1,0.0745
2,Cc1ccc(-n2c(=O)c3c(n4cnnc24)-c2ccccc2CC32CCCCC2)cc1,-0.463
3,CN1CCN(S(=O)(=O)c2ccc(N)cc2)CC1,0.149
4,CC(C)(C)NC(=O)COC(=O)/C=C/c1ccc(F)cc1,-0.0768
5,O=C(Nc1ccn(Cc2c(F)c(F)cc(F)c2F)n1)c1ccc(COc2cc(Cl)ccc2Cl)o1,-0.0665
6,COc1ccccc1NC(=S)Nc1ccccc1F,-0.185
7,Cc1ccc(C(=O)Nc2ccc3c(c2)nc2n3CCSC2)cc1,0.623
8,CCCS(=O)(=O)N1CCCC(C(=O)NCCCN2CCN(c3ccc(F)cc3)CC2)C1 (stereo unspecified),0.281
9,COc1ccc(C2=NN(C(=O)CSc3nc4ccccc4s3)C(c3ccc(F)cc3)C2)cc1 (stereo unspecified),0.00961
10,CN(C)NC1CCS(=O)(=O)C1 (stereo unspecified),-0.105
11,N#CCCNCC1(c2ccccc2)CCCC1,-0.298
12,Cc1ccc(-c2nnc(N3CCN(C(=O)CN4CCOCC4)CC3)c3ccccc23)cc1,-0.0936
13,COc1ccc(N2CCN(C(=O)C3CCN(S(=O)(=O)N4CCOCC4)CC3)CC2)cc1,-0.182
14,CO/N=C/c1ccc(N2CCN(C(=O)c3ccc(C)cc3)CC2)c([N+](=O)[O-])c1,-0.316
15,CCOc1ccc(OCC)c(-c2c(=O)n(OCc3ccccc3Br)c3ccccc3[n+]2[O-])c1,1.8
16,CN1CCN(CC(=O)N/N=C\c2c[nH]c3ccccc23)CC1,0.264
17,Cc1nc(NC(=O)c2ccc(F)cc2)sc1C(=O)Nc1ccc2c(c1)CCC2,-0.189
18,CCn1nc(NS(=O)(=O)c2ccccc2)c2cc3cccc(C)c3nc21,-0.264
19,CC12CCC(C/C1=N\OC(=O)c1ccc(F)cc1)C2(C)C (stereo unspecified),-0.0195
20,O=C(c1ccc(CS(=O)(=O)c2ccccc2)o1)N1CCN(c2ncccn2)CC1,-0.184
21,Cc1ccc(-c2nc3ccccc3c(=O)n2Cc2ccccc2)cc1,-1.92
22,COc1ccc(C(=O)N2CCN(c3nc4cc(C)ccc4cc3C#N)CC2)c(OC)c1,0.165
23,CCOC(=O)c1[nH]c2cc(OC)c(OC)cc2c1NC(=O)C(C)N1CCN(Cc2ccccc2)CC1 (stereo unspecified),0.951
